Our source for the binding signal (normalized occupancy) values is publication PMC4242493.

The other results are listed elsewhere or left out. The list includes weakly bound sequences.

This assay has as its target MaxL homodimer (UniProt P61244). Kind of assay: universal protein-binding microarray (PBM). Particulars: PBS-based mixture, 10 nM His-tagged protein dimer, 2% milk, 200 ng/uL BSA, 50 ng/uL salmon testes DNA, 0.02% TX-100; detection with Alexa 488 anti-His …; high values mean tight binding; most listed sequences are background and not binding sites; double strand, one strand shown.
Sequence of UniProt P61244 (P61244 whole entry): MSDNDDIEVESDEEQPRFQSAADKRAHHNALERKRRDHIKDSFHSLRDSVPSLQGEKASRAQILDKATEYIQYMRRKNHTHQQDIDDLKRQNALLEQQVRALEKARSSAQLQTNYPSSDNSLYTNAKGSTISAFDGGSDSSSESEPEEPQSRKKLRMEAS
In the case of CGGTTCTA, the binding signal (normalized occupancy) is 0.0676.
Take CAAGCACA: the binding signal (normalized occupancy) turned out to be 0.0792.
As for TAGAGCGA, the binding signal (normalized occupancy) amounted to 0.0751.
Then ACACGTGC, with 0.567.
Then CCATGCGC, with 0.121.
Turning to ATCCCTAA, the binding signal (normalized occupancy) turned out to be 0.0765.
Then ATCGCGCA, with 0.0728; and CGCTGCCA, with 0.0759.
Regarding ATCGGTCG, the binding signal (normalized occupancy) was found to be 0.0689.
As to AGGACAAT, the binding signal (normalized occupancy) was 0.0757.
Then CAAAATCC, with 0.077.
Then GACTAATC, with 0.0734; and CAGCGACG, with 0.0736.
Then ATTTTCAA, with 0.073; and CGCACGGA, with 0.0722.
Regarding AACGTCCC, the binding signal (normalized occupancy) turned out to be 0.0732.
On to CTGTATAA, for which the binding signal (normalized occupancy) was 0.0827.
For CGGCCCTA, the binding signal (normalized occupancy) was 0.0716.
In the case of GAACAGGC, the binding signal (normalized occupancy) was 0.0747.
On to TGCCAAAA, for which the binding signal (normalized occupancy) is 0.0792.
Then AGGCATGG, with 0.0974.
Take GAAAGTTA: the binding signal (normalized occupancy) was 0.0806.
Then ATTGCGTA, with 0.08; and AACTCGAA, with 0.0701.
Then GCTATGGA, with 0.0781; and CTAAATAC, with 0.0772; and GCAAGACC, with 0.0691.
Then ATGGTATC, with 0.0832.
Take CTCTTAAC: the binding signal (normalized occupancy) was determined as 0.078.
Turning to CTGAGATC, the binding signal (normalized occupancy) is 0.0763.
Then GGGGCATA, with 0.0817.
For the sequence AGCATAAT, the binding signal (normalized occupancy) came out at 0.0823.
Then CAGGTAGG, with 0.0726; and GCTGCTCA, with 0.0787.
Then AGGTTCGG, with 0.0678; and AGCGAATC, with 0.0773; and ATCCCTGG, with 0.0736.
Then TCTCTCAA, with 0.0726; and CTGCACTA, with 0.0731.
As for ACGCGAAC, the binding signal (normalized occupancy) amounted to 0.076.
Then TGTGGTAA, with 0.0816.
Then ACTAACTG, with 0.0712; and GACGTCAA, with 0.078.
For ACGCCCTA, the binding signal (normalized occupancy) came to 0.0732.
For TGCGGCAA, the binding signal (normalized occupancy) came out at 0.0776.
Then ACTCGGAG, with 0.0714; and AAGTAACG, with 0.073.
Then CGAAGGAG, with 0.0687; and ATTAAGCG, with 0.0782; and CCGGGCCG, with 0.065.
Then CGAATTCG, with 0.0678; and ATATCTAA, with 0.0791; and TCATATAA, with 0.085.
Turning to CAATAATG, the binding signal (normalized occupancy) turned out to be 0.0823.
In the case of ATTGTGAG, the binding signal (normalized occupancy) was determined as 0.0775.
Then GATCGGGC, with 0.0706; and ACGGGGCG, with 0.0815; and ACCCTGCT, with 0.0725.
With CAGGCGAG, the binding signal (normalized occupancy) was 0.073.
Then CCAGGCTC, with 0.0701; and CCACTGTC, with 0.0708.
Turning to AGGCAAAA, the binding signal (normalized occupancy) came out at 0.0712.
As to GCAAATCA, the binding signal (normalized occupancy) is 0.0792.
For the sequence ACCACCAG, the binding signal (normalized occupancy) is 0.0743.
Then ACGGCAGT, with 0.0704; and GACAAGTA, with 0.0778.
Regarding GGTACGAA, the binding signal (normalized occupancy) stood at 0.0733.
As for ACTCTCAG, the binding signal (normalized occupancy) was found to be 0.0718.
Then ATCTTTCG, with 0.0726; and ACGGCGAT, with 0.0744; and ACAAAGGT, with 0.0757.
AACGCCTC: the binding signal (normalized occupancy) amounted to 0.0708.
For CCGTGCTC, the binding signal (normalized occupancy) came out at 0.0737.
Then CGTTCTTA, with 0.0701; and CGCGGCAC, with 0.0765.
Then ACTTGTTC, with 0.0741; and ACGCGTTC, with 0.0785.
Then ACTCTTTA, with 0.0729.
In the case of GCGGAAAA, the binding signal (normalized occupancy) came out at 0.0713.
With CAATTCTG, the binding signal (normalized occupancy) stood at 0.074.
Consider CGATATGC, for which the binding signal (normalized occupancy) worked out at 0.0806.
Then GCGCCTGA, with 0.0712; and TGCTCGAA, with 0.0717; and AGCCCTCA, with 0.0761.
Then CACAAAGG, with 0.0753; and CCGCCTTA, with 0.0713; and AGCGCAAT, with 0.0765.
On to GCATTGTA, for which the binding signal (normalized occupancy) worked out at 0.0806.
Then CTTCCGGC, with 0.0677; and CACAGTGC, with 0.0774; and CGATGGCG, with 0.0725.
Then CCCGCCTA, with 0.0791; and GCCGATTA, with 0.0745.
Then GCCCTCAC, with 0.078.
Consider CAGCATGA, for which the binding signal (normalized occupancy) was determined as 0.106.
Then CCTTCTCC, with 0.071; and GTCAAGCA, with 0.0776.
Then CATGTTGG, with 0.0918.
Then AACCTTTG, with 0.0696; and CATACCAA, with 0.085; and ACAAGAGC, with 0.0748.
For CCATGCCA, the binding signal (normalized occupancy) was 0.0875.
Then CACTGTTA, with 0.0737.
Then GACCGCAA, with 0.0683.
Then CCCTGTCG, with 0.0722; and CTATGTTA, with 0.0812; and GATGCTTA, with 0.0759.
CAGTGGCC: the binding signal (normalized occupancy) was 0.0653.
On to GACTAGAC, for which the binding signal (normalized occupancy) came to 0.0698.
Then CAGTGTGG, with 0.0854; and AGTCATCC, with 0.0756.
Then GGTCGCTA, with 0.0713; and GGTTACAA, with 0.0762.
For GACGCAGA, the binding signal (normalized occupancy) turned out to be 0.0709.
Then AGCTTAAA, with 0.0696; and ACAACACC, with 0.0812; and CAGCATTA, with 0.0824.
Take GTACAACA: the binding signal (normalized occupancy) is 0.0787.
CTATACTA: the binding signal (normalized occupancy) was determined as 0.0789.
Turning to ACGTTACT, the binding signal (normalized occupancy) came to 0.0911.
Consider ATTTCACC, for which the binding signal (normalized occupancy) was found to be 0.0745.
For the sequence AAAGTGTC, the binding signal (normalized occupancy) was 0.0707.
With GCAGGAAC, the binding signal (normalized occupancy) stood at 0.071.
With TATGAACA, the binding signal (normalized occupancy) was 0.0793.
In the case of AAGAGATG, the binding signal (normalized occupancy) worked out at 0.0789.
GGCAAGCC: the binding signal (normalized occupancy) came to 0.0715.
As to CGCGGCTC, the binding signal (normalized occupancy) is 0.073.
Then CCTGTTCG, with 0.0735; and CGGGCGCC, with 0.0687.
Then GCGTACGA, with 0.075; and ACTATTGG, with 0.0759.
Then CCTTATCA, with 0.0784; and CCAGCAAA, with 0.0781.
On to TAACATAA, for which the binding signal (normalized occupancy) came to 0.0762.
As for CACCAATA, the binding signal (normalized occupancy) was 0.0713.
Then CCACACTA, with 0.0809; and ATAATCTA, with 0.0826; and CCTAGCAG, with 0.0704.
Then CCTCGGGC, with 0.0661.
Then TACGGTCA, with 0.0735.
Consider AGTCGTAC, for which the binding signal (normalized occupancy) amounted to 0.0745.
Then ACCGGTGC, with 0.0722.
Then TATTCAAA, with 0.0733.
Then AGTATGTA, with 0.086; and AATATGGT, with 0.0807; and ACCGGAAT, with 0.0751.
As to CGACTCCA, the binding signal (normalized occupancy) was determined as 0.0709.
As to GCTATCTA, the binding signal (normalized occupancy) came out at 0.0739.
Take CCCGGAGA: the binding signal (normalized occupancy) was found to be 0.0684.
Regarding TAAACAGA, the binding signal (normalized occupancy) is 0.0719.
On to AGAGTCGA, for which the binding signal (normalized occupancy) was found to be 0.0688.
Then GGACAGCC, with 0.0684; and GAAGAATA, with 0.0796; and ACTGTGAC, with 0.0707.
Then ACGCCGTA, with 0.078; and ACAAGACG, with 0.076; and ATGAGAGC, with 0.078.
Then ATATGCAT, with 0.0949.
Turning to AGAGGGGG, the binding signal (normalized occupancy) turned out to be 0.0776.
GATCCCTA: the binding signal (normalized occupancy) amounted to 0.0747.
ACCATCGG: the binding signal (normalized occupancy) amounted to 0.0713.
Then ACTACGAT, with 0.0766.
Then AGAGCGCA, with 0.073; and GCACTGCC, with 0.07; and ATACAAAG, with 0.0726.
For CTACAGCC, the binding signal (normalized occupancy) stood at 0.0733.
Then AGCTTATC, with 0.074; and GGGAGAAC, with 0.0729.
For the sequence ACGTTGCA, the binding signal (normalized occupancy) was 0.0788.
Then GCCTCGAC, with 0.0728; and ATAACTTA, with 0.081; and AAAAATCT, with 0.0754.
